# Data published in PubChem BioAssay AID686971 (National Center for Advancing Translational Sciences (NCATS), 2013).
# Screen size: about 360,000 compounds; about 7,500 (2.1%) were called active. The shares of active, inactive and inconclusive entries below differ from those in the screen. Calls follow the shape of the dose curve; as a rule, active = well fitted cell-killing curve with a large enough effect; inconclusive = small, poorly fitted or top-dose-only effect, or effect the other way, or another doubt; inactive = no such curve, though single readings can be large or run the other way. Potencies of inconclusive entries are left out as doubtful fits. More than one record can exist for a structure, and the calls need not agree.
# Assay: qHTS for induction of synthetic lethality in tumor cells producing 2HG: qHTS for the HT-1080-IDH1KD cell line
# Conditions: HT-1080 IDH1 knockdown viability, ATP luminescence, 48 h; series mostly up to 46.1 µM
# Outline: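 IDH1KD HT-1080 cells, 750/well, RPMI + 5% FBS; compound pinned after 2 h settling; 48 h, 37 °C; CellTiter-Glo luminescence; % activity normalised to DMSO and no-cell wells; curves fitted, classed by r2 and efficacy.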
# Potency is read from the fitted curve at half-maximal effect; tags tell the direction and shape of the fitted curve.
row,SMILES,Potency
1,NC1=NC(=Nc2ccccc2)c2ccccc21,"inconclusive [cytotoxic, single point]"
2,CC(c1ccco1)N(C(=O)c1ccc(S(=O)(=O)N2CCCCC2)cc1)c1ccccn1 (stereo not given),"inconclusive [cytotoxic, single point]"
3,CC(=O)O[C@H]1[C@H](O)[C@H](Oc2c(O)c(C)c3c4c2[C@@H](C)CC[C@@H]4[C@@H](C)C[C@H]3C=C(C)C)O[C@@H](C)[C@H]1O,"inconclusive [cytotoxic, single point]"
4,COc1ccc(OC)c(NC(=O)Cc2ccc(NC3=NC4CS(=O)(=O)CC4S3)cc2)c1 (stereo not given),inactive
5,c1ccc(CN2CCN(c3nc(-c4ccccc4)nc(-n4ccnc4)n3)CC2)cc1,"inconclusive [cytotoxic, single point]"
6,CCCN1C(=O)c2ccc(C(=O)Nc3cc(C)ccc3O)cc2C1=O,"inconclusive [cytotoxic, partial curve]"
7,CCOc1ccc(-c2nnc(-c3cccs3)o2)cc1,"inconclusive [rising, partial curve]"
8,COc1ccc(OC)c(NC(=O)CCc2c[nH]c3ccccc23)c1,"inconclusive [cytotoxic, partial curve]"
9,O=C(Cc1c[nH]c2ccccc12)NCc1ccc2c(c1)OCO2,inactive
10,CCCS(=O)(=O)c1cnc(C2COc3ccccc3O2)nc1N (stereo not given),"inconclusive [cytotoxic, single point]"
11,CC(C)(C)c1csc(NC(=O)c2ccccc2O)n1,"inconclusive [cytotoxic, partial curve]"
12,COc1ccc(-c2csc3ncnc(NCCCO)c23)cc1,"inconclusive [cytotoxic, partial curve]"
13,CCn1c(CSc2nc(C)cc(C)n2)nnc1SCC(=O)Nc1nc(-c2ccccc2)cs1,inactive
14,Cc1ccc(CCNC(=O)c2cc(S(=O)(=O)N3CCCC3)cn2C)cc1,inactive
15,O=C(CSc1nc2[nH]ncc2c(=O)n1-c1ccc(Cl)c(Cl)c1)NCc1ccccc1Cl,"inconclusive [cytotoxic, partial curve]"
16,CCOC(=O)c1c(CN2CCN(CCO)CC2)n(-c2ccccc2)c2cc(Br)c(O)cc12,active: 23.1 µM
17,CSC1=NC(=O)/C(=C\c2cccc3ccccc23)S1,inactive
18,CCC(C)NCCOCCOc1ccc(Cl)c(C)c1C (stereo not given),active: 20.6 µM
19,Cc1cc(SC#N)cc(C)c1NC(=O)CCl,active: 23.1 µM
20,C=C(C)[C@@H]1CC=C(CN2CCC(N3CCC(C(=O)N4CCCC4)CC3)CC2)CC1,active: 20.6 µM
21,COc1ccc(C2NCCc3c2[nH]c2ccccc32)cc1CSc1nc2ccccc2s1 (stereo not given),active: 23.1 µM
22,COc1ccccc1CNC(=O)C(NC(=O)C1CCCCC1)C(C)C (stereo not given),"inconclusive [rising, single point]"
23,O=C(CN1C2=NCCCN2c2ccccc21)c1ccc(Br)s1,inactive
24,CCCCCn1c(SCC(=O)OCC)nc2cc(C(=O)N3CCC(C(N)=O)CC3)ccc2c1=O,inactive

row,SMILES,Potency
1,CCCCNc1c(-c2ccc(OC)c(Sc3ccc(OC)cc3)c2)nc2cnccn12,"inconclusive [cytotoxic, single point]"
2,O=C(O)c1ccccc1C(=O)NNc1ccc(F)cc1,active: 8.2 µM
3,CCC1(c2ccc(F)cc2)NC(=O)N(CC(=O)Nc2ccc(-c3nc4ccc(C)cc4s3)cc2)C1=O (stereo not given),"inconclusive [cytotoxic, single point]"
4,N#CC(C#N)=C(Nc1ccc(F)cc1)SCc1cccc(Br)c1,active: 18.4 µM
5,COc1ccc(F)cc1-c1cc(C(=O)NCc2cccc(C(F)(F)F)c2)[nH]n1,"inconclusive [cytotoxic, single point]"
6,CC1(C)C2CCC(C2)C1(C)NC(=O)CNC1CCCCC1 (stereo not given),inactive
7,CC(NC(=S)NCCc1ccccc1)C(c1cccs1)N1CCN(Cc2ccccc2)CC1 (stereo not given),"inconclusive [cytotoxic, single point]"
8,O=C(Cn1nnc(-c2ccccc2NC(=O)c2ccccc2F)n1)NCc1ccco1,"inconclusive [cytotoxic, single point]"
9,O=[N+]([O-])c1ccc(S(=O)Cc2ccccc2)c([N+](=O)[O-])c1 (stereo not given),active: 16.4 µM
10,CCOC(=O)C1=C(CSc2nc3ccccc3s2)NC(=O)NC1c1ccc(OC)cc1 (stereo not given),"inconclusive [cytotoxic, single point]"
11,Nc1nnnn1/N=C/c1ccc(Cl)cc1,"inconclusive [cytotoxic, single point]"
12,O=C(c1ccccc1Br)N1N=C(c2ccccc2)CC1c1ccccc1F (stereo not given),inactive
13,CCOC(=O)C1=CC[C@@H](c2ccc(F)cc2)N(S(=O)(=O)c2ccc(C)cc2)[C@H]1c1ccccc1,inactive
14,Cc1cccc(N2CCN(C(=O)c3ccc(S(=O)(=O)N(C)c4ccccc4)cc3)CC2)c1C,active: 7.31 µM
15,CCOc1cc(N2CCOCC2)c(OCC)cc1NC(=O)c1cc(C)cc(C)c1,inactive
16,COc1ccc2c(c1)OC(O)(C(F)(F)C(F)F)CC2=O (stereo not given),"inconclusive [cytotoxic, single point]"
17,COC(=O)CC1(CC(N)=O)SCCS1,"inconclusive [cytotoxic, partial curve]"
18,Cc1c(C2(O)CCCCC2)[nH]c2cc(C(F)(F)F)ccc12,"inconclusive [cytotoxic, single point]"
19,CCOC(=O)c1oc2ccccc2c1NC(=O)c1ccccc1OC,"inconclusive [cytotoxic, single point]"
20,CN1CCN(CC(=O)Nc2c(C(=O)c3ccccc3)oc3ccccc23)CC1,active: 20.6 µM
21,COc1cccc2c1C(=O)c1c(O)c3c(c(O)c1C2=O)C[C@@](O)(C(=O)CO)C[C@@H]3O[C@H]1C[C@H](N)[C@@H](O)[C@H](C)O1,active: 0.517 µM
22,CS(=O)(=O)NNC(=O)c1sccc1OCc1ncc(C(F)(F)F)cc1Cl,"inconclusive [cytotoxic, single point]"
23,O=C(CSCc1ccccc1)Nc1cccc(C(=O)Nc2ccccc2C(=O)O)c1,"inconclusive [cytotoxic, single point]"
24,Cc1cc(NCCCn2ccnc2)n2ncc(-c3ccccc3)c2n1,"inconclusive [cytotoxic, partial curve]"

row,SMILES,Potency
1,Cc1ccc(-n2c(-c3ccc(Br)cc3)c[n+]3c2CCc2ccc4cccnc4c2-3)cc1,active: 3.98 µM
2,Cc1cccc(-n2c(SCc3ccc(C#N)cc3)nnc2-c2c[nH]c3ccccc23)c1,"inconclusive [cytotoxic, single point]"
3,CN(CC(=O)Nc1n[nH]c(=S)s1)S(=O)(=O)c1cccc2cccnc12,inactive
4,CCOCCCNC(=O)c1cc(=O)n(Cc2cccc(C)c2)c2ccccc12,inactive
5,O=C(Nc1ccc(F)c(Cl)c1)c1cc(C2CCCCN2C(=O)c2ccccc2)on1 (stereo not given),"inconclusive [cytotoxic, single point]"
6,Cc1ccc(C(=O)N/N=C/c2nc3ccccc3n2C)cc1,active: 10 µM
7,CC(=O)O[C@@H](C[C@@H](C)C1=C2C[C@H](O)C3[C@@]4(C)CCC(=O)C(C)(C)C4CC[C@]3(C)[C@@]2(C)CC1)[C@H]1OC1(C)C (stereo not given in full),"inconclusive [cytotoxic, single point]"
8,CCOc1ccc2nc(NC(=O)/C=C/c3ccc4c(c3)OCO4)sc2c1,"inconclusive [cytotoxic, single point]"
9,Cc1cc(=O)oc2cc(Oc3ccc([N+](=O)[O-])cc3C(F)(F)F)ccc12,inactive
10,O[C@H]1C[C@H](c2ccc(Cl)cc2)N(Cc2cccs2)C[C@@H]1n1cc(-c2ccc(F)cc2)nn1,"inconclusive [cytotoxic, single point]"
11,Cc1c(N=C2C=C(Br)C(=O)C(Br)=C2)c(=O)n(-c2ccccc2)n1C,"inconclusive [cytotoxic, single point]"
12,Oc1[nH]c2ccccc2c1C1=NCCCC1,"inconclusive [rising, partial curve]"
13,O=C(NCCc1ccccc1)N1c2ccccc2Sc2ccccc21,"inconclusive [cytotoxic, partial curve]"
14,C[C@@H]1C(c2ccccc2)=NN(c2ccccc2)[C@H]1C(=O)N1CCOC1=O,"inconclusive [cytotoxic, single point]"
15,CCN1CCN(Cc2ccc(NC(=O)c3ccc(C)c(/C=C/c4cnc(Nc5cc(N6CCNCC6)nc(C)n5)cn4)c3)cc2C(F)(F)F)CC1,active: 18.4 µM
16,CCCNC(=O)C1(C)CCN(C(=O)COCc2ccccc2)C1 (stereo not given),"inconclusive [rising, partial curve]"
17,c1ccc(CC2CCN(c3ncnc4sccc34)CC2)cc1,"inconclusive [cytotoxic, partial curve]"
18,O=C(Oc1ccc[nH]c1=O)c1ccccc1,"inconclusive [cytotoxic, partial curve]"
19,COc1ccc(/C=C2\SC(=S)N(CCC(=O)NCCc3ccc(O)cc3)C2=O)cc1,inactive
20,O=c1[nH]c(=S)[nH]c2c1[C@H](CCc1cccc(Cl)c1)O[C@H](C1CCCC1)C2,"inconclusive [cytotoxic, single point]"
21,COc1cc(CC(=O)C(=O)O)oc(=O)c1,inactive
22,CC(=O)c1ccc(OCc2cc(C(=O)N3CCCCC3c3cccnc3)no2)cc1 (stereo not given),"inconclusive [cytotoxic, single point]"
